Values marked as one replicate rest on one cluster of the flow cell; about a third of the high ones do not repeat.
Tested on: ATP
Assay: switch fluorescence ratio, 500 uM ATP over buffer (Cy3 cluster intensity, sum of 5 cycles each) (fold (ratio)); higher = stronger signal-on switching upon ATP binding; sequences stand for … in TCGTCGGCAGCGTCAGATGTGTATAAGAGACAGTTTTTTTTTTTTTTTTTTTTTTTTT…TC
Details: aptamer strand: ATP DNA aptamer (quencher-CACCTGGGGGAGTATTGCGGAGGAAGG + anchor), 100 nM annealed; ATP concentration: 500 uM; one replicate
In short: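 Clusters with intensities outside 100-1000 RFU were excluded. The remaining Cy3-labelled switching-strand clusters on a modified Illumina MiSeq flow-cell had been annealed to 100 nM quencher-labelled ATP aptamer and imaged in selection buffer, then after 15 min with 500 uM ATP at 22 °C, for five cycles separated by NaOH stripping and re-annealing. The fluorescence ratio, averaged per switch-domain sequence, is each cluster's summed target-cycle Cy3 intensity over its summed buffer-cycle Cy3 intensity.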
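Note: ATP exposure 15 min at 22 °C before imaging.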

| Sequence | switch fluorescence ratio |
| --- | --- |
| CAGTGTCATC | 0.999 |
| CAGTTATGA | 1.01 |
| CAGTTCAGCC | 0.997 |
| CAGTTCCCGT | 1.01 |
| CAGTTGAAGT | 0.977 |
| CAGTTGG | 0.999 |
| CAGTTTCACG | 1.01 |
| CAGTTTCTCA | 1.02 |
| CAGTTTGCTT | 0.977 |
| CATAAATCTC | 1.03 |
| CATAACATTT | 0.976 |
| CATAACGATA | 1.05 |
| CATAATATAT | 1.04 |
| CATAATGAGC | 0.947 |
| CATAATGATG | 0.986 |
| CATACAAGTC | 1.04 |
| CATACATAGA | 0.979 |
| CATACCGGAT | 1.06 |
| CATACCTCTG | 1.02 |
| CATACTAGAG | 1.01 |
| CATAGAAGTG | 1 |
| CATAGATACT | 1.02 |
| CATAGCCAGG | 1.21 |
| CATAGCCTGG | 1 |
| CATAGGAATA | 1.12 |

| Sequence | switch fluorescence ratio |
| --- | --- |
| CATAGGAGCG | 1.04 |
| CATAGGCTCT | 0.965 |
| CATAGGTGAG | 0.998 |
| CATAGTAGCT | 0.991 |
| CATATGGACT | 1.01 |
| CATATGTTAT | 0.996 |
| CATATTTTA | 1.02 |
| CATCAAGCAG | 2.31 |
| CATCACAGG | 1.33 |
| CATCACGTGG | 0.97 |
| CATCAGGATA | 1.04 |
| CATCAGGCAG | 1.31 |
| CATCAGTTGG | 1 |
| CATCATCATT | 1.03 |
| CATCATGAGC | 1.06 |
| CATCATGGAT | 1.04 |
| CATCCGGGCG | 1.35 |
| CATCCTGTGT | 0.983 |
| CATCCTGTTT | 1.01 |
| CATCGAGGCG | 1.01 |
| CATCGGGTGT | 1.23 |
| CATCGTGCGT | 0.963 |
| CATCTACTTT | 1 |
| CATCTATGGG | 0.988 |
| CATCTCCGTT | 1.21 |

| Sequence | switch fluorescence ratio |
| --- | --- |
| CATCTGGACG | 0.977 |
| CATCTGTTGA | 0.992 |
| CATCTTAGGG | 1.02 |
| CATCTTCACG | 0.954 |
| CATGAACAAA | 1 |
| CATGAACTAG | 1.02 |
| CATGAATCCC | 1.09 |
| CATGAGATGG | 0.97 |
| CATGAGCCTA | 0.866 |
| CATGATATGC | 1.04 |
| CATGCAATTA | 1.19 |
| CATGCACCCA | 1.07 |
| CATGCAGGAC | 2.29 |
| CATGCAGTGA | 1.02 |
| CATGCCATTG | 1.02 |
| CATGCCGATC | 1.01 |
| CATGCCGGCG | 0.966 |
| CATGCGGCCA | 1 |
| CATGCTATAG | 1.06 |
| CATGCTATT | 1.03 |
| CATGGAGCTG | 0.994 |
| CATGGATGGT | 0.985 |
| CATGGCACA | 0.994 |
| CATGGCATTT | 0.941 |
| CATGGCGGGC | 0.986 |

| Sequence | switch fluorescence ratio |
| --- | --- |
| CATGGGAAGC | 0.942 |
| CATGGTGCCT | 1.06 |
| CATGGTGCGA | 1.04 |
| CATGTACTCG | 1.04 |
| CATGTAGGTA | 0.98 |
| CATGTATCAC | 0.986 |
| CATGTATTTC | 0.967 |
| CATGTCAAAC | 1.01 |
| CATGTGGGCT | 1.02 |
| CATGTTATCA | 0.981 |
| CATGTTCAAC | 1.03 |
| CATGTTGCAG | 0.962 |
| CATGTTGGGC | 0.981 |
| CATGTTTGAG | 0.981 |
| CATTACGTTT | 1.01 |
| CATTAGATGG | 1.04 |
| CATTAGATTG | 1.03 |
| CATTAGGAGC | 1.04 |
| CATTAGGGAT | 0.993 |
| CATTAGGGTT | 1.02 |
| CATTATATTG | 1.01 |
| CATTATGCCG | 0.971 |
| CATTATGGCT | 0.994 |
| CATTCAAAGC | 1.03 |
| CATTCCCACG | 1.23 |
